These results are taken from PubChem BioAssay AID488969 (Vanderbilt High Throughput Screening Facility, 2010).

The structures appear in SMILES notation. The full ranking holds about 110,000 compounds; the median of “z-score” is about -0.1, and the highest 2% start at about 2. The list shows a part of the results.

The assay deals with Metabotropic glutamate receptor 8 (Rattus norvegicus) (UniProt P70579). The assay is described as follows: rat mGluR8 modulators via GIRK flux, primary screen, cell-based, thallium flux, HTS (AID 488969). Conditions: HEK293 rat mGluR8, GIRK (G protein-gated inwardly rectifying potassium channel) thallium flux, FluoZin2; at 10 µM; stronger effect = higher value; submaximal glutamate (EC20) added with thallium.
Chain of UniProt P70579 (P70579 whole entry, looked up): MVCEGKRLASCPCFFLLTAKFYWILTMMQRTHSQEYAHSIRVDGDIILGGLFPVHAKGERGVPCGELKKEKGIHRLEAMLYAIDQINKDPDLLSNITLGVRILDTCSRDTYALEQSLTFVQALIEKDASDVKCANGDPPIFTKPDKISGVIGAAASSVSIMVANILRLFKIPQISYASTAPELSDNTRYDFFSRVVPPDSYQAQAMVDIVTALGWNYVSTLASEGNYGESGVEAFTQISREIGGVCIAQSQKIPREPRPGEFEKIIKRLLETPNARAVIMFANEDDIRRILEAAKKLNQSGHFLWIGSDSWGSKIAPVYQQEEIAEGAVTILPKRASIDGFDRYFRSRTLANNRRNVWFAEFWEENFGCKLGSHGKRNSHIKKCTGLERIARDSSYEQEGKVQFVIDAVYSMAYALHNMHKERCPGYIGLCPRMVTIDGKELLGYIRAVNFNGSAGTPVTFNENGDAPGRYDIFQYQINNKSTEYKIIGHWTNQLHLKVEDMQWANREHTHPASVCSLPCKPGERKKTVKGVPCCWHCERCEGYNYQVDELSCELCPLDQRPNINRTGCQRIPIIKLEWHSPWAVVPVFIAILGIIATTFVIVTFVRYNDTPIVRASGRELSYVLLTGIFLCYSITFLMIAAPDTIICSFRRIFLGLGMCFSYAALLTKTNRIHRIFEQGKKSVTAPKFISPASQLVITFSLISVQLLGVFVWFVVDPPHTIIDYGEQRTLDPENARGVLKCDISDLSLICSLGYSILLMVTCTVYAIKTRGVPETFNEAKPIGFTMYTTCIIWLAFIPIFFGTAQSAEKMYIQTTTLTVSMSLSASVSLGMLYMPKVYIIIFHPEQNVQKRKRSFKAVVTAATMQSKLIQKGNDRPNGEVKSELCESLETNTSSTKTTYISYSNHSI
`COC(=O)c1cccc(NC(=O)CN2CCN(c3ccc(OC)cc3)CC2)c1` came in with a z-score of -0.368.
As for `NC(=NC1CCCCC1)c1ccc([N+](=O)[O-])cc1`, the z-score came to 0.992.
Consider `Cc1ccccc1N1C(=O)CC(N2CCC(C(N)=O)CC2)C1=O` (centres undefined), for which the z-score amounted to 1.02.
Compound `N/C(=N/O)c1nc(N2CCCCC2)nc(N2CCCCC2)n1` yielded a z-score of -0.109.
For `CC(C)c1ccc(-c2c(C#N)c(N)nc(SCC(=O)N3CCCCC3)c2C#N)cc1`, the z-score is -0.019.
In turn, `COc1ccccc1CNC(=O)CN1CCN(Cc2ccc(Cl)cc2)C1=O` had a z-score of -0.0941.
Turning to `COc1cc(-c2cc(N)n(S(=O)(=O)c3ccccc3)n2)cc(OC)c1OC`, the z-score was -0.36.
`CC(=O)Nc1ccc(OC(=O)c2cc([N+](=O)[O-])ccc2Cl)cc1` registered a z-score of -0.251.
In the case of `Cc1ccc(C)c(C(=O)COC(=O)c2ccccc2N2C(=O)C3C4CCC(C4)C3C2=O)c1` (centres undefined), the z-score was -0.0577.
With `CC(O)Cn1c(=O)c2c(nc(Br)n2Cc2ccccc2)n(C)c1=O` (centres undefined) the figure was -0.215; with `CC(C)CNC(=S)N1CCN(C)CC1`, -0.258.
For the compound `COc1ccc(NC(=O)CN(C)S(=O)(=O)c2ccc(Cl)cc2)c([N+](=O)[O-])c1`, the z-score is -0.00271.
`CC(C)NS(=O)(=O)c1ccc(CCC(=O)N2CCOCC2)cc1` gave a z-score of 0.356.
In the case of `Cc1ccc(/C=C(\C#N)C(=O)Nc2cccc3ncccc23)o1`, the z-score was -0.0932.
The compound `C=CCNc1ncnc2c1[nH]c1ccccc12` had a z-score of 1.42.
`c1ccc(Oc2nc3ccccc3n3cccc23)cc1` gave a z-score of 0.019.
As for `Cc1ccc(CN(C(=O)c2ccco2)C(C(=O)NC2CCCC2)c2ccc(N3CCOCC3)cc2)cc1` (centres undefined), the z-score amounted to 0.124.
`Cc1ccccc1OCCCC(=O)Nc1ccccc1C(F)(F)F` had a z-score of -0.0847.
Consider `Cc1cccc(C)c1NC(=O)COC(=O)c1c2c(nc3ccccc13)/C(=C\c1ccc3c(c1)OCO3)CCC2`, for which the z-score was -0.139.
`CC1=CC(=O)C(C(C)C)=C/C1=N\OC(=O)c1cccc2nc(C)oc12` yielded a z-score of -0.343.
As for `Cc1ccccc1NC(=O)c1sc(NC(=O)COc2ccccc2)c(C#N)c1C`, the figure is -0.306; as for `COc1nccnc1NS(=O)(=O)c1ccc(N=Cc2c(C)[nH]n(-c3ccc(Cl)cc3)c2=O)cc1`, -0.564.
Turning to `Cc1[nH]c2ccccc2c1/C=N/n1cnnc1`, the z-score stood at 0.647.
With `COc1ccc2cc3cc(C(=O)NCc4cccs4)oc3nc2c1` the figure was -0.312.
`CCCS(=O)(=O)N1CCCC(C(=O)NCCN2CCCCC2C)C1` (centres undefined): the z-score was -0.0419.
`Cc1cccc(OCC(=O)Nc2cccc(O)c2)c1` yielded a z-score of 0.13.
As for `Cc1ccc(C(=O)CN(C(=O)c2ccc(Cl)cc2)N2C(=O)c3ccccc3C2=O)cc1`, the figure is -0.256.
As to `CCc1nnc(NC(=O)c2ccc(S(=O)(=O)N3CCc4ccccc4C3)cc2)s1`, the z-score was -0.158.
Take `Cc1nc2ccc(NC(=O)c3cc([N+](=O)[O-])cc([N+](=O)[O-])c3Cl)cc2s1`: the z-score is -0.928.
`O=C(O)C1CC(=O)N(c2ccc(F)cc2)C1` (centres undefined): the z-score was -0.0935.
Consider `COCCn1c(SCC(=O)N2CCCc3ccccc32)nnc1-c1ccoc1C`, for which the z-score amounted to 0.0369.
Compound `Cc1ccc(-c2nc(N)n(S(C)(=O)=O)n2)cc1` came in with a z-score of 0.138.
Take `Cc1ccsc1/C=C(\C#N)C(=O)Nc1c(C)n(C)n(-c2ccccc2)c1=O`: the z-score was -0.0704.
As for `CCOC(=O)c1cnc2c(-c3cccc(Br)c3)cnn2c1C`, the z-score is -0.475.
For the compound `O=S(=O)(c1cccc(S(=O)(=O)N2CCC(Cc3ccccc3)CC2)c1)N1CCOCC1`, the z-score is 1.8.
As for `Cc1cccc(NC(=O)c2c(C)nc3ccccn23)c1`, the z-score turned out to be 0.272.
Turning to `COc1ccc(C(=O)/C=C/Nc2ccc(S(=O)(=O)Nc3ncccn3)cc2)cc1`, the z-score worked out at 0.0026.
On to `CCOc1cc(C(=O)CCC(=O)OCC(=O)N2c3ccccc3NC(=O)C2(C)C)ccc1O`, for which the z-score was -0.428.
As to `CC1=CC(C)(C)n2c(O)c(N=NC(N)=S)c3c(C)ccc1c32`, the z-score amounted to 1.1.
`NS(=O)(=O)c1ccc(NC(=O)c2cc(-c3cccs3)nc3ccccc23)cc1` returned a z-score of -0.204.
For `CCOC(=O)c1nn(-c2ccccc2C)c2nc(-c3ccc(Cl)cc3)c(C#N)c(=O)n12`, the z-score was -0.206.
With `C=CCOC(=O)C1=C(C)Nc2ncnn2C1c1cc(Br)ccc1F` (centres undefined) the figure was -0.0321.
Compound `COC(=O)CC1SCCNC1=O` (centres undefined) yielded a z-score of 0.961.
The compound `Cc1ccc(OC(=O)c2ccc(Br)o2)cc1` registered a z-score of -0.171.
Turning to `Cc1ccc(S(=O)(=O)c2c(C)nn(-c3ccccc3)c2OC(=O)c2ccco2)cc1`, the z-score was -0.0111.
With `O=C(O)c1cccc(NS(=O)(=O)c2cccc3nsnc23)c1` the figure was -0.226; with `O=C(CSc1ccccc1)Nc1ccc(S(=O)(=O)NCC2CCCO2)cc1` (centres undefined), -0.21.
`Cc1cccc(C)c1NC(=O)NC1(C(=O)NCCCN2CCOCC2)CCCCC1` showed a z-score of -0.375.
As for `COCCCNC(=O)c1cc2c(=O)n3cc(C)ccc3nc2nc1NCC1CCCO1` (centres undefined), the figure is -0.177; as for `Cc1ccc(NC(=O)C(CC(C)C)NC(=O)C2CCC(C)CC2)nc1` (centres undefined), -0.935.
`Cc1csc(NC(=O)CCC(=O)N(CC(=O)NC2CCCC2)Cc2ccco2)n1` had a z-score of 1.55.
Take `O=C(/C=C/Nc1ccccc1)c1cnc(-c2ccccc2)s1`: the z-score was 0.0836.
`Cc1occc1C(=O)Nc1cccc(/C=C/C(=O)O)c1` displayed a z-score of -0.0738.
`O=C(CSc1ccc(-c2ccco2)nn1)c1ccc(F)cc1` had a z-score of -0.0218.
With `CC(=O)NCC(=O)OCC(=O)c1ccc2ccccc2c1`, the z-score is -0.577.
`CC(C)OC(=O)c1cc(NC(=O)C2C3CCC(O3)C2C(=O)O)cc(C(=O)OC(C)C)c1` (centres undefined) gave a z-score of -0.293.
On to `Cc1ccc(S(=O)(=O)N(C)c2ccc(C(=O)N3CCC(C(N)=O)CC3)cc2)cc1`, for which the z-score was -0.841.
On to `COc1ccc(N2CCN(C(=O)C(C)(C)Oc3ccc(Cl)cc3)CC2)cc1`, for which the z-score worked out at 0.258.
Turning to `O=S(=O)(NC1CCCCC1)c1ccc(-c2csnn2)s1`, the z-score is -0.711.
Compound `Cc1cc(C(=O)NCc2ccco2)on1` registered a z-score of -0.514.
As for `CC(=O)c1cc(C#N)c(SCc2ccc(F)cc2)nc1C`, the figure is -0.343; as for `CCOc1ccc(NC(=O)[C@@H](NC(=O)c2ccccc2)[C@@H](C)CC)cc1`, 0.512.
Regarding `COc1cccc(-c2cc(C(=O)Nc3c(C)n(C)n(-c4ccccc4)c3=O)no2)c1`, the z-score is -0.312.
For `O=C(CSc1ccc2nnc(-c3ccc(F)cc3)n2n1)N1CCCc2ccccc21`, the z-score is -0.861.
In turn, `CSc1ccccc1C(=O)Nc1cccc(N(C)S(C)(=O)=O)c1` yielded a z-score of 0.081.
Compound `CC(NC(=O)COC(=O)CCNC(=O)c1ccco1)C12CC3CC(CC(C3)C1)C2` (centres undefined) gave a z-score of -0.0782.
As for `CCc1[nH]c(=O)c(C#N)c2c1CCCC2`, the figure is -0.0557.
For the compound `CCOC(=O)c1c(C)nc2sc3c(c2c1-c1ccc(OC)cc1)NC(c1ccc(OC)cc1)NC3=O` (centres undefined), the z-score is -0.241.
Compound `CC(C)Cc1ccc(/C=C/C(=O)NC2CC2)cc1` came in with a z-score of -0.16.
`COc1nc(-c2ccc(Cl)cc2)ccc1-c1noc(-c2ccco2)n1` returned a z-score of -0.281.
As for `COc1ccc(OCCNC(=O)c2ccccc2OCC(=O)N2CCCCC2)cc1`, the figure is -0.424; as for `O=C(O)C1C2C=CC(C2)C1C(=O)NCc1ccc(Cl)c(Cl)c1` (centres undefined), -0.175; as for `O=c1[nH]c2ccc(S(=O)(=O)N3CCN(Cc4ccccc4)CC3)cc2[nH]c1=O`, 0.0265.
With `CCOc1ccc(N2CC(C(=O)OC)CC2=O)cc1` (centres undefined), the z-score was -0.028.
As for `NC(=O)C1CCN(C(=O)C2c3ccccc3C(=O)N3CCc4ccccc4C23)CC1` (centres undefined), the figure is -0.556.
As for `CC1CC1C(=O)OCC(=O)NCc1ccccc1Cl` (centres undefined), the figure is 0.266; as for `O=C1c2ccccc2C(=O)N1c1nc(-c2cccs2)cs1`, -0.507.
With `NC(=O)CCNC(=O)c1ccc(Cl)cc1` the figure was -0.504; with `C/C(=N\NC(=O)OC(C)(C)C)c1cccc([N+](=O)[O-])c1`, -0.272; with `C/C(=C\C(=O)OCC(=O)NCc1ccccc1)C(=O)OCC(=O)NCc1ccccc1`, 0.492.
Turning to `C[N+]1(CC2COC3(CCCCC3)O2)CCCC1` (centres undefined), the z-score was -0.214.
`Cc1ccc(N2CS(=O)(=O)/C(=C/N(C)C)C2=O)cc1` yielded a z-score of 0.0229.
For `CCc1ccc(C(=O)COC(=O)C(CCSC)NC(=O)c2ccccc2)cc1` (centres undefined), the z-score is -0.144.
With `COc1cc(OC)cc(C(=O)NCCn2ccc3ccccc32)c1` the figure was 0.165; with `Cc1noc(C)c1COC(=O)Cn1c(C)nc2ccccc21`, 0.194; with `Cc1ccnc(SCC(=O)Nc2sc3c(c2C#N)CCCC3)n1`, -0.556.
Take `O=C(CCCn1c(=S)[nH]c2cc3c(cc2c1=O)OCO3)N1CCN(C2CCCCC2)CC1`: the z-score is -0.008.
The compound `O=S(=O)(c1ccc2ccccc2c1)n1cnc2ccccc21` came in with a z-score of -0.475.
Regarding `Cc1cc(C)nc(/N=C(\N)Nc2ccc(C)c([N+](=O)[O-])c2)n1`, the z-score is -0.413.
`O=C(Cc1ccc2c(c1)CCCC2)Nc1ccccc1Cl` came in with a z-score of -0.0266.
As for `COc1ccc(C(=O)c2ccc(Cl)c([N+](=O)[O-])c2)cc1`, the figure is -0.0778; as for `COc1ccccc1NC(=O)C(C)NS(=O)(=O)c1ccccc1` (centres undefined), 0.359; as for `COc1cc(C(C[N+](=O)[O-])c2c(-c3ccccc3)cc3ccccn23)cc(OC)c1OC` (centres undefined), -1.28.
Regarding `CCOc1cc(CNc2ccccc2)cc(Br)c1OCc1ccccc1F`, the z-score is -0.148.
Turning to `O=C(CSCc1ccccc1)N/N=C/c1ccc(OCC(=O)N2CCCCC2)cc1`, the z-score was -0.0691.
Turning to `O=c1c2ccccc2nc(/C=C/c2ccc([N+](=O)[O-])o2)n1CCCO`, the z-score was determined as 0.0808.
In the case of `CCCCOC(=O)Nc1ccccc1C(=O)OC`, the z-score is -0.415.
Consider `COC(=O)Cc1c(C)c2ccc(OC(=O)c3ccccc3)cc2oc1=O`, for which the z-score is 0.141.
On to `O=C1CC(=Nc2ccccc2)NN1c1ccccc1`, for which the z-score is -0.137.
`COc1ccccc1NC(=O)CSc1nnc(C2CCCCC2)n1C` returned a z-score of 0.0978.
For the compound `CCCN1CCN(CCCNC(=O)C2CCN(c3nnc(-n4cccc4)s3)CC2)CC1`, the z-score was -0.0056.
As for `FCCCOc1ccc(-c2nccc(-c3ccc(F)cc3)n2)cc1`, the figure is 0.0825; as for `NC(=O)C1CC(O)CN1c1nc(CN2CCOCC2)nc2scc(-c3ccccc3)c12` (centres undefined), -0.0691.
As for `O=C(CN(Cc1ccc(F)cc1)C(=O)C1CSC(=O)C1)NC1CCCCC1` (centres undefined), the figure is 0.115; as for `CC(NC(=O)C(=O)NN=C1CCCCCCCCCCC1)c1ccccc1` (centres undefined), -0.142; as for `CC(C(=O)NC1=NCCS1)(C(F)(F)F)C(F)(F)F`, -0.0611.
`CCc1nnc(NC(=O)C2Cc3ccccc3CN2S(=O)(=O)c2ccc(C)cc2)s1` (centres undefined) registered a z-score of 0.0333.
Take `O=C(NN1c2ccccc2CCc2ccccc21)c1ccccc1Br`: the z-score was -0.0618.
With `O=C(Nc1ccc(N2CCOCC2)cc1N1CCOCC1)c1ccc([N+](=O)[O-])cc1` the figure was -0.957.
